{"source": "the RNAGym collection of RNA variant scans (doi:10.1073/pnas.2313332121)", "parents": {"B1": {"name": "TPR 5TU (parent)", "chain": "GGAUCUUCUCGAUCUAACAAAAAAGACAAAUCUGCCACAAAGCUUGAGAGCAUCUUCGGAUGCAGAGGCGGCAGCCUUCGGUGGCGCGAUAGCGCCAACGUUCUCAACUAUGACACGCAAAACGCGUGCUCCGUUGAAUGGAGUUUAUCAUG"}}, "note": "Variants at the floor of the assay are shown more often than the library holds them."}
{"variants_of": "B1", "test": "polymerase ribozyme fitness, log enrichment relative to wild type (log ratio); higher = more active; in vitro selection for triplet polymerase activity", "summary_of_the_method": "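Genotype fitness is the logarithm of its enrichment divided by wild-type enrichment, using inverse-variance-weighted averages of replicates. That logarithm is base 2. Enrichment was measured by Illumina sequencing of input and output libraries from one triplicate in vitro selection round, with frozen incubation at −7 °C, on PCR-built, transcribed mutant libraries of each subunit of a heterodimeric triplet polymerase ribozyme, retaining genotypes with ≥10 input reads and ≥1 read per output.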"}
{"variant": "GGAUCUUCUCGAUCUAACAAAAGAGACAAAUCUGCCACAAAGCUUGAGAGCAUCUUCGGAUGCAGAGGCGGCAGCCUUCGGUGGCGCGAUAGCGCAAACGUUAUCAACUAUGACACCCAAAACGCGUGCUCCGUUGAAUGGAGUUUAUCAUG", "note": "[A23G C96A C103A G117C]", "polymerase ribozyme fitness (log ratio)": "≤ -4.2"}
{"variant": "GGAUCUUCUCGAUCUAACAAAAGAGACAAAUCUGCCACAAAGCUUGAGAGCAUCUUCGGAUGCAGAGGCGGCAGCCUUCGGUGGCGCGAUAGCGCAAACGUUCUCAACUAUGACACGCAAAACGUGUGUUCCGUUGAAUGGAGUUUAUCAUG", "note": "[A23G C96A C125U C129U]", "polymerase ribozyme fitness (log ratio)": "≤ -4.2"}
{"variant": "GGAUCUUCUCGAUCUAACAAAAGACACAAACCUGCCACAAAGCUUGAGAGCAUCUUCGGAUGCAGAGGCGGCAGCUUUCGGUAGCGCGAUAGCGCCAACGUUCUCAACUAUGACACGCAAAACGGGUGCUCCGUUGAAUGGAGUUUAUCAUG", "note": "[A23G G25C U31C C76U G83A C125G]", "polymerase ribozyme fitness (log ratio)": "≤ -4.2"}
{"variant": "GGAUCUUCUCGAUCUAACAAAAGAUAAAAAUCUGCCACAACGCUUGGGCGCAUCUUCGGAUGCAGAGGCGCCAGCCUUCGGUGGCGCGAUAGCGCCAACGUUCUCAACUAUGACAGGCACAACGCGUGCUCCGUUGAAUGCAGUUUAUCAUG", "note": "[A23G G25U C27A A41C A47G A49C G71C C116G A120C G141C]", "polymerase ribozyme fitness (log ratio)": "≤ -4.2"}
{"variant": "GGAUCUUCUCGAUCUAACAAAAGAGACAAAUCUGCCACAAAGCUUAAGAGCAUCUACGGAUGCAGAGGCGGCAGCCUUCGGUGGCGAGAUAGCGCCAACGUUCUCAACUAUGACACGCAAAACGCGUGCUCCGUUGAAUGCAGUUUAUCAUG", "note": "[A23G G46A U56A C87A G141C]", "polymerase ribozyme fitness (log ratio)": "≤ -4.2"}
{"variant": "GGAUCUUCUCGAUCUAACAAAAGAGACAAAUCUGCCACAAAGCUUCAGAACAUCUUCGGAUGCAGAGGCGGCAGCCUUCGGUGGCGCGAUAACGCCAACGUUCUCAACUAUGACACGUAAAACGCGUGCUCCGUUGAAUGGUGUUUAUCAUG", "note": "[A23G G46C G50A G92A C118U A142U]", "polymerase ribozyme fitness (log ratio)": "≤ -4.2"}
{"variant": "GGAUCUUCUCGAUCUAACAAAAGAGACAAAUCUGCCACAAAGCUUCAGACUAUCUUCGGAUGCAGAGGAGGCAGCCUUCUGUGGCGCGAUAGCGCCAACGUACUCAACUAUGACACGCAAAACGCGUGCUCCGUUGAAUGGAGUUUAUGCUG", "note": "[A23G G46C G50C C51U C69A G80U U102A C149G A150C]", "polymerase ribozyme fitness (log ratio)": "≤ -4.2"}
{"variant": "GGAUCUUCUCGAUCUAACAAAAGAGACAAAUCUGCCACAAAGCUUGAUAGCAUCUUCGGAUGCACAGGCGGUAGCCUUCGCUUGCGCGAUAGCGCCAACGUUCUCAACUAUGACACGCAAAACGCGUGCUCCGUUGAAUGGAGUUUAUCAUG", "note": "[A23G G48U G65C C72U G81C G83U]", "polymerase ribozyme fitness (log ratio)": "≤ -4.2"}
{"variant": "GGAUCUUCUCGAUCUAACAAAAGAGACAAAUCUGCCACAAAGCUUGAGACCAUCUUCGGAUGCUGAGGCGGCAGCCUUCGGUGGCGCGAUAGAGCCAACGUUCUCAACUAUGACACGCAUAACGCGUGCUCCGUUGAAUGGAGUUUAUCAUG", "note": "[A23G G50C A64U C93A A120U]", "polymerase ribozyme fitness (log ratio)": "≤ -4.2"}
{"variant": "GGAUCUUCUCGAUCUAACAAAAGAGACAAAACUGCCACAAAGCUUGAGAGCAUCUUCCGAUGCAGAGGCCGCAGCCUUCGGUGGCGCGAUAGGGCCAACGUUCUCAGCUAUGACACGCAAAACGCGUGCUCCGUUGAAUGGAGUUUAUCAUG", "note": "[A23G U31A G58C G70C C93G A107G]", "polymerase ribozyme fitness (log ratio)": "≤ -4.2"}
{"variant": "GGAUCUUCUCGAUCUAACAAAAGAGACAAAUCGGCCACAAAGCUUGAGAGCAUCUUCGGAUGCAGAGGCGGCAGCCUUCGGUGGCGCGAUAGCGCCAACCUUCUCAACUAUGACACGCAAAACGCGUGCUCCGUUGAAUGGAGUUUACCAUG", "note": "[A23G U33G G100C U148C]", "polymerase ribozyme fitness (log ratio)": "≤ -4.2"}
{"variant": "GGAUCUUCUCGAUCUAACAAAAGAGACAAAUCUGCCACAAAGCUUGAGAGCAUCAUCGGAUGCAGAGGCGGCAGCCUUCGGUGGCGUGAUAGCGCCAACGUUCUCAACUAUGACACGCAAAACGCGUGCUCCGUUGAAUGGAGUUUAUCAUG", "note": "[A23G U55A C87U]", "polymerase ribozyme fitness (log ratio)": -2.98}
{"variant": "GGAUCUUCUCGAUCUAACAAAAGAGACAAAUCUGCCACAAAGCUUGAGAGCAUCUACGGAUGCAGCGGCGGCAGCCUUCGAUGGCGCGAUAGCGUCAACGUUCUCAACUAUGACACGCAAAACGCGUGCUCCGUUGAAUGGAGUUUAUCAUG", "note": "[A23G U56A A66C G81A C95U]", "polymerase ribozyme fitness (log ratio)": "≤ -4.2"}
{"variant": "GGAUCUUCUCGAUCUAACAAAAGAGACAAAUCUGCCACAAAGCUUGAGAGCAUCUACGGAUGAAGAGGCGGCAGCCUUCGGUGGUGCGAUAGUGCCAACGUUCUCAACUAUGACACGCAAAACGCGUGCUCCGUUGAAUGGAGUUUAUCAUG", "note": "[A23G U56A C63A C85U C93U]", "polymerase ribozyme fitness (log ratio)": "≤ -4.2"}
{"variant": "GGAUCUUCUCGAUCUAACAAAAGAGACAAAUCUGCCACAAAGCUUGAGAGCAUCUUCGGAGGCAGAGGCGGCAGCCUUCGGUGGCGCGAUAGGGCCAACGUUCUCAACUAUGACACGCAAAACGCAUGCUCCGUUGAAUGGAGUUUAUCAUG", "note": "[A23G U61G C93G G126A]", "polymerase ribozyme fitness (log ratio)": "≤ -4.2"}
{"variant": "GGAUCUUCUCGAUCUAACAAAAGAGACAAAUCUGCCACAAAGCUUGAGAGCAUCUUCGGAUGCAGAGGCGGCAGCCCUCGGUGGCGCGAUAUCGCCAAAGUUCUCAACUAUGACACGCAAAACGCGUGCUCCUUUGAAUGGAGUUUAUCAUC", "note": "[A23G U77C G92U C99A G133U G152C]", "polymerase ribozyme fitness (log ratio)": "≤ -4.2"}
{"variant": "GGAUCUUCUCGAUCUAACAAAAGAGACAAAUCUGCCACAAAGCUUGAGAGCAUCUUCGGAUGCAGAGGCGGCAGCCUUCGGUGGCGCGAUAGCGCCAACGUUCUCAACUAUGACACGCAAAACGCGGGCUCCGUUGUAUGGAGUUUAUCAUG", "note": "[A23G U127G A137U]", "polymerase ribozyme fitness (log ratio)": "≤ -4.2"}
{"variant": "GGAUCUUCUCGAUCUAACAAAAUCGACAAAUCUGCCACAAAGCUUGAGAGCGUCUUCGGAUGCAGAGGCGGCAGCCUUCGGUGGCGAGAUAGCGCCAAUGUUCUCAACUAUGACACGCAAAACGCGUGCUCCGUUGAAUGGAGUUUAUCAUG", "note": "[A23U A24C A52G C87A C99U]", "polymerase ribozyme fitness (log ratio)": "≤ -4.2"}
{"variant": "GGAUCUUCUCGAUCUAACAAAAUCGAGAAAUCUGCCACAAAGCUUGAGAGCAUCUUCAGAUGCAGAGGCGGCAGCCUUCGGUGGCUCGAUAGCGCCAACGUUCUCAACUAUGAUACGCAAAAAGCGUGCUCCGUUGAAUGGAGUUUAUAAUG", "note": "[A23U A24C C27G G58A G86U C114U C123A C149A]", "polymerase ribozyme fitness (log ratio)": "≤ -4.2"}
